Test results as given in the supplement of paper PMC4723716.
± gives the uncertainty stated by the source. In all, about 9,900 compounds were measured (“viability index relative to DMSO control”: median about 1, lowest 2% from about 0.85 on). This is one part of the list.

Each compound was assayed on Plasmodium falciparum NF54 stage V gametocytes (assay: viability index relative to DMSO control (fraction); higher = less gametocyte killing). Details: 2.5 µM, library set: Broad Institute DOS, incubation time: 72 h.
Procedure, shortened: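 P. falciparum NF54 stage V gametocytes (serum-free medium, 0.75% gametocytemia, 1.25% hematocrit) were exposed to compound at 2.5 µM for 72 hr at 37°C under low oxygen, then stained with MitoTracker Red CMXRos and saponin for one to two hours. Red particles of 20–70 µm2 in one field per well were counted, and the viability index is that count scaled to the plate mean of solvent-only wells.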

Structure (SMILES)	viability index
Cc1noc(C)c1S(=O)(=O)Nc1ccc2c(c1)C(=O)N([C@@H](C)CO)C[C@H](C)[C@@H](CN(C)Cc1ccc(C(=O)O)cc1)OCCCC[C@H](C)O2	1.01 ± 0.16
COc1ccc(NC(=O)N(C)C[C@@H]2OCCCC[C@H](C)Oc3ccc(NC(=O)c4ccncc4)cc3C(=O)N([C@@H](C)CO)C[C@H]2C)cc1	1.12 ± 0.052
Cn1cnc(CCNC(=O)C[C@H]2CC[C@@H]3[C@H](COC[C@@H](O)CN3C(=O)Nc3ccc(C(F)(F)F)cc3)O2)c1	1.04 ± 0.043
C[C@@H](NC(=O)C[C@@H]1C=C[C@H](NS(=O)(=O)c2cccc(F)c2)[C@H](CO)O1)c1ccccc1	1.16 ± 0.083
O=C(C[C@H]1CC[C@@H]2[C@H](COC[C@@H](O)CN2CCC(F)(F)F)O1)NCc1ccc2c(c1)OCO2	0.951 ± 0.064
C[C@@H]1CN([C@@H](C)CO)C(=O)c2cc(NC(=O)Cn3cnnn3)ccc2O[C@@H]1CN(C)C(=O)Nc1ccc2c(c1)OCO2	1.02 ± 0.15
CN1CCN(C(=O)C[C@@H]2CC[C@H]3[C@@H](COC[C@@H](O)CN3C(=O)c3ccccc3F)O2)CC1	1.06 ± 0.046
COc1ccccc1-c1ccc2c(c1)O[C@H](CN(C)CC1CCOCC1)[C@@H](C)CN([C@@H](C)CO)S2(=O)=O	1.01 ± 0.079
O=C(NCC1CC1)[C@@H]1[C@@H](CO)[C@@H]2Cn3c(ccc(C4=CCCC4)c3=O)[C@@H]2N1C(=O)C1CC1	1.05 ± 0.063
CO[C@@H]1CN(C)C(=O)c2cc(NC(=O)CC(F)(F)F)ccc2OC[C@H](C)N(CC2CC2)C[C@H]1C	1.11 ± 0.014
CC(C)NC(=O)N1CC[C@@H]2[C@H]1c1cc(C#Cc3ccccc3)ccc1N(C)[C@@H]2CO	1.11 ± 0.056
C[C@H]1CN([C@@H](C)CO)C(=O)c2cc(NC(=O)Cn3cnnn3)ccc2O[C@H]1CN(C)C(=O)Nc1ccc2c(c1)OCO2	1.035 ± 0.0075
C[C@H](CO)N1C[C@H](C)[C@H](CN(C)S(=O)(=O)c2ccc(F)cc2)OCCCC[C@H](C)Oc2ccc(NC(=O)CCCCCC(=O)Nc3ccccc3N)cc2C1=O	0.982 ± 0.12
COC(=O)c1ccc(CN2CC(=O)N3[C@@H](CO)[C@H](c4ccc(-c5cccnc5)cc4)[C@@H]3C2)cc1	1 ± 0.012
O=C(C[C@@H]1CC[C@H](NC(=O)c2ccc3c(c2)OCO3)[C@H](CO)O1)NCc1ccc(Oc2ccccc2)cc1	1.08 ± 0.19
COc1cccc(-c2ccccc2[C@@H]2[C@H](C#N)N(C(=O)c3ccccn3)[C@H]2CO)c1	1.1 ± 0.072
N#Cc1ccc(-c2ccc([C@@H]3[C@@H]4CN(S(=O)(=O)c5ccc(F)cc5)C[C@H]3N4)cc2)cc1	1.02 ± 0.061
C[C@H](CO)N1C[C@H](C)[C@H](CN(C)CC2CCCCC2)OCCCC[C@H](C)Oc2ccc(NS(C)(=O)=O)cc2C1=O	1.05 ± 0.086
CCN(C[C@H]1[C@H](c2ccccc2)[C@H](CO)N1C(=O)COC)S(C)(=O)=O	1.03 ± 0.04
C[C@@H]1CN([C@H](C)CO)C(=O)c2c(c3ccccc3n2C)-c2ccccc2CO[C@H]1CN(C)C	1 ± 0.023
C[C@@H]1CN([C@H](C)CO)C(=O)CCCn2nncc2CO[C@@H]1CN(C)Cc1ccccc1C(=O)O	1.08 ± 0.055
CCS(=O)(=O)N1[C@H](C#N)[C@H](c2ccc(-c3cccc(F)c3)cc2)[C@@H]1CO	0.946 ± 0.011
O=C(C[C@@H]1C=C[C@H](NC(=O)C2CCOCC2)[C@@H](CO)O1)NCCc1cscn1	1.11 ± 0.096

Structure (SMILES)	viability index
C[C@H](CO)N1C[C@H](C)[C@@H](CN(C)Cc2ccc3c(c2)OCO3)Oc2c(NC(=O)c3ccncc3)cccc2C1=O	1.09 ± 0.06
O=C(C[C@H]1C[C@H]2c3cc(NC(=O)C4CCC4)ccc3O[C@H]2[C@@H](CO)O1)NC1CCCC1	1.002 ± 0.0073
N#C[C@@H]1[C@H](c2ccccc2-c2cccc(F)c2)[C@@H](CO)N1C(=O)c1cccnc1	1.09 ± 0.063
CCC(=O)N1CC[C@H]2[C@@H]1c1cc(C#Cc3ccccc3OC)ccc1N(C)[C@H]2CO	1.06 ± 0.034
COc1ccc(CNC(=O)C[C@@H]2CC[C@H](NC(=O)CN(C)C)[C@H](CO)O2)cc1	0.971 ± 0.062
CCCNC(=O)N1C[C@@H]2[C@H](c3ccccc31)[C@H](CO)N2Cc1cccc(OC)c1	0.995 ± 0.041
COCC(=O)Nc1ccc2c(c1)[C@@H]1C[C@@H](CC(=O)N[C@H](C)c3ccccc3)O[C@H](CO)[C@@H]1O2	1.02 ± 0.026
CO[C@@H]1CN(C)C(=O)c2cc(NC(=O)C3CCCCC3)ccc2OC[C@@H](C)N(Cc2cccnc2)C[C@H]1C	1.132 ± 0.0091
O=C(CC1CC1)N1[C@@H](CO)[C@@H](c2ccccc2)C12CN(Cc1ccccc1)C2	1.06 ± 0.063
C[C@H](CO)N1C[C@H](C)[C@H](CN(C)S(C)(=O)=O)Oc2c(NC(=O)Nc3ccc4c(c3)OCO4)cccc2C1=O	1.03 ± 0.11
N#C[C@H]1[C@@H](c2ccccc2)[C@@H](CO)N1C(=O)c1ccc2c(c1)OCO2	1.08 ± 0.022
COc1cccc(NC(=O)N[C@H]2CC[C@H](CC(=O)N3CCN(C)CC3)O[C@H]2CO)c1	1.136 ± 0.0081
CNC[C@@H]1Oc2ccc(N)cc2CC(=O)N([C@H](C)CO)C[C@H]1C	0.954 ± 0.011
CCC(=O)N1[C@@H](CO)[C@@H](c2ccccc2)[C@@H]1CN(CC)C(=O)c1cccc(F)c1	1.04 ± 0.018
COc1cccc(NC(=O)N2CC3(C2)[C@@H](c2ccccc2)[C@H](CO)N3C(C)=O)c1	1.07 ± 0.028
O=C(C[C@@H]1CC[C@H]2NC[C@H](O)COC[C@@H]2O1)NC1Cc2ccccc2C1	1.03 ± 0.019
N#C[C@H]1[C@H](c2ccccc2C2=CCCCC2)[C@@H](CO)N1C(=O)CN1CCOCC1	1.05 ± 0.2
CO[C@@H](CN(C)Cc1ccc2c(c1)OCO2)[C@@H](C)CN(C(=O)c1ccccc1)[C@@H](C)CO	1.059 ± 0.0076
COc1ccc(NC(=O)N(C)C[C@@H]2Oc3ccc(NC(=O)CCN4CCOCC4)cc3C(=O)N([C@H](C)CO)C[C@@H]2C)cc1	1.08 ± 0.1
CCCC(=O)Nc1ccc2c(c1)OC[C@H](C)N(CC1CCOCC1)C[C@@H](C)[C@H](OC)CN(C)C2=O	1.02 ± 0.039
CO[C@@H]1CN(C)C(=O)c2ccc(NC(=O)Nc3ccccc3F)cc2OC[C@@H](C)N(CC2CC2)C[C@H]1C	0.948 ± 0.086
COCC#Cc1ccc([C@H]2[C@@H](CO)N3CCCCN(Cc4cccnc4)C[C@@H]23)cc1	1.05 ± 0.1
